PMC12820563, “FoxP3 forms a head-to-head dimer in vivo and stabilizes its multimerization on adjacent microsatellites”
The other results are listed elsewhere or left out.

Target: T1, MBP-FoxP1dN (Mus musculus, UniProt P58462 326-579)
T1 sequence: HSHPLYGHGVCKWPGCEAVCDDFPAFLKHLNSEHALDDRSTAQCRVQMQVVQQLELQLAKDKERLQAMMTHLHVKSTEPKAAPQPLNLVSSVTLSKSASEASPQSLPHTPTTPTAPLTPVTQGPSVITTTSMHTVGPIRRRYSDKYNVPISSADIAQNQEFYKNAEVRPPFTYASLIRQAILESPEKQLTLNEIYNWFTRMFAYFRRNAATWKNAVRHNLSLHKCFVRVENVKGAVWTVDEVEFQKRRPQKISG
Assay: PD-seq (MBP pull-down with sequencing); 20 mM Tris-HCl pH 7.5, 100 mM NaCl, 1.5 mM MgCl2, 0.4 uM protein, 0.1 uM dsDNA library, 30 min, room temperature, amylose pull-down; high values mean tight binding
Conditions: protein: recombinant; tags: His6-MBP; chain copies: 2; dsDNA, one strand shown
In short: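 In Tris pH 7.5 buffer with NaCl and MgCl2, 0.4 µM His6-MBP-tagged mouse FoxP3 or FoxP1 fragment lacking the N-terminus, from E. coli, met 0.1 µM Klenow-filled double-stranded degenerate DNA library for 30 min at room temperature. Three washes on amylose resin followed capture of the complexes, then proteinase K release of DNA, PCR barcoding and Illumina sequencing. Binding is taken as pooled-replicate reads-per-million enrichment of pull-down relative to input.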

In order of falling binding signal:
1. GATGATTGTTCTCCCAGCTGATGAATTTGTTGTATCGAGTAAACAAATTTTCCTAATCTTTCTGTTCAAGCGCCATCTAC  2.21 RPM ratio (pull-down/input)
2. GATGATTGTTCTCCCAGCTGATGAATTGTTTCTTTCGAGTAAACAAATTTTCCTAATCTTTCTGTTCAAGCGCCATCTAC  1.58 RPM ratio (pull-down/input)
3. GATGATTGTTCTCCCAGCTGATGAATTGATGTATTCGAGTAAACAAATTTTCCTAATCTTTCTGTTCAAGCGCCATCTAC  1.47 RPM ratio (pull-down/input)
4. GATGATTGTTCTCCCAGCTGATGAATTTAATTACTCGAGTAAACAAATTTTCCTAATCTTTCTGTTCAAGCGCCATCTAC  1.38 RPM ratio (pull-down/input)
5. GATGATTGTTCTCCCAGCTGATGAATTGTTCGCATCGAGTAAACAAATTTTCCTAATCTTTCTGTTCAAGCGCCATCTAC  1.34 RPM ratio (pull-down/input)
6. GATGATTGTTCTCCCAGCTGATGAATTGCAACCCTCGAGTAAACAAATTTTCCTAATCTTTCTGTTCAAGCGCCATCTAC  1.32 RPM ratio (pull-down/input)
7. GATGATTGTTCTCCCAGCTGATGAATTACTTTTTTCGAGTAAACAAATTTTCCTAATCTTTCTGTTCAAGCGCCATCTAC  1.28 RPM ratio (pull-down/input)
8. GATGATTGTTCTCCCAGCTGATGAATTAATGCAGTCGAGTAAACAAATTTTCCTAATCTTTCTGTTCAAGCGCCATCTAC  1.27 RPM ratio (pull-down/input)
9. GATGATTGTTCTCCCAGCTGATGAATTATTATGGTCGAGTAAACAAATTTTCCTAATCTTTCTGTTCAAGCGCCATCTAC  1.24 RPM ratio (pull-down/input)
10. GATGATTGTTCTCCCAGCTGATGAATTGTCTGCATCGAGTAAACAAATTTTCCTAATCTTTCTGTTCAAGCGCCATCTAC  1.24 RPM ratio (pull-down/input)
11. GATGATTGTTCTCCCAGCTGATGAATTACATCATTCGAGTAAACAAATTTTCCTAATCTTTCTGTTCAAGCGCCATCTAC  1.22 RPM ratio (pull-down/input)
12. GATGATTGTTCTCCCAGCTGATGAATTACCTAATTCGAGTAAACAAATTTTCCTAATCTTTCTGTTCAAGCGCCATCTAC  1.17 RPM ratio (pull-down/input)
13. GATGATTGTTCTCCCAGCTGATGAATTGAGTGTATCGAGTAAACAAATTTTCCTAATCTTTCTGTTCAAGCGCCATCTAC  1.16 RPM ratio (pull-down/input)
14. GATGATTGTTCTCCCAGCTGATGAATTATACACGTCGAGTAAACAAATTTTCCTAATCTTTCTGTTCAAGCGCCATCTAC  1.15 RPM ratio (pull-down/input)
15. GATGATTGTTCTCCCAGCTGATGAATTTAGTTACTCGAGTAAACAAATTTTCCTAATCTTTCTGTTCAAGCGCCATCTAC  1.15 RPM ratio (pull-down/input)
16. GATGATTGTTCTCCCAGCTGATGAATTACTAACGTCGAGTAAACAAATTTTCCTAATCTTTCTGTTCAAGCGCCATCTAC  1.11 RPM ratio (pull-down/input)
17. GATGATTGTTCTCCCAGCTGATGAATTTGTGCTCTCGAGTAAACAAATTTTCCTAATCTTTCTGTTCAAGCGCCATCTAC  1.08 RPM ratio (pull-down/input)
18. GATGATTGTTCTCCCAGCTGATGAATTCACCAAATCGAGTAAACAAATTTTCCTAATCTTTCTGTTCAAGCGCCATCTAC  1.07 RPM ratio (pull-down/input)
19. GATGATTGTTCTCCCAGCTGATGAATTCATGGCATCGAGTAAACAAATTTTCCTAATCTTTCTGTTCAAGCGCCATCTAC  1.06 RPM ratio (pull-down/input)
20. GATGATTGTTCTCCCAGCTGATGAATTGTAGTGCTCGAGTAAACAAATTTTCCTAATCTTTCTGTTCAAGCGCCATCTAC  1.04 RPM ratio (pull-down/input)
21. GATGATTGTTCTCCCAGCTGATGAATTGTGGCGGTCGAGTAAACAAATTTTCCTAATCTTTCTGTTCAAGCGCCATCTAC  1.03 RPM ratio (pull-down/input)
22. GATGATTGTTCTCCCAGCTGATGAATTTTGTCTGTCGAGTAAACAAATTTTCCTAATCTTTCTGTTCAAGCGCCATCTAC  1.02 RPM ratio (pull-down/input)
23. GATGATTGTTCTCCCAGCTGATGAATTGCGAACCTCGAGTAAACAAATTTTCCTAATCTTTCTGTTCAAGCGCCATCTAC  1.01 RPM ratio (pull-down/input)
24. GATGATTGTTCTCCCAGCTGATGAATTCAGATTGTCGAGTAAACAAATTTTCCTAATCTTTCTGTTCAAGCGCCATCTAC  0.994 RPM ratio (pull-down/input)
25. GATGATTGTTCTCCCAGCTGATGAATTGGCGTGTTCGAGTAAACAAATTTTCCTAATCTTTCTGTTCAAGCGCCATCTAC  0.991 RPM ratio (pull-down/input)
26. GATGATTGTTCTCCCAGCTGATGAATTACAGCAGTCGAGTAAACAAATTTTCCTAATCTTTCTGTTCAAGCGCCATCTAC  0.982 RPM ratio (pull-down/input)
27. GATGATTGTTCTCCCAGCTGATGAATTCGCGTATTCGAGTAAACAAATTTTCCTAATCTTTCTGTTCAAGCGCCATCTAC  0.979 RPM ratio (pull-down/input)
28. GATGATTGTTCTCCCAGCTGATGAATTTGTGGGGTCGAGTAAACAAATTTTCCTAATCTTTCTGTTCAAGCGCCATCTAC  0.973 RPM ratio (pull-down/input)
29. GATGATTGTTCTCCCAGCTGATGAATTGCCTCTCTCGAGTAAACAAATTTTCCTAATCTTTCTGTTCAAGCGCCATCTAC  0.972 RPM ratio (pull-down/input)
30. GATGATTGTTCTCCCAGCTGATGAATTAGCGTATTCGAGTAAACAAATTTTCCTAATCTTTCTGTTCAAGCGCCATCTAC  0.969 RPM ratio (pull-down/input)
31. GATGATTGTTCTCCCAGCTGATGAATTTGGGTTTTCGAGTAAACAAATTTTCCTAATCTTTCTGTTCAAGCGCCATCTAC  0.968 RPM ratio (pull-down/input)
32. GATGATTGTTCTCCCAGCTGATGAATTGCACGGGTCGAGTAAACAAATTTTCCTAATCTTTCTGTTCAAGCGCCATCTAC  0.957 RPM ratio (pull-down/input)
33. GATGATTGTTCTCCCAGCTGATGAATTAACCGCGTCGAGTAAACAAATTTTCCTAATCTTTCTGTTCAAGCGCCATCTAC  0.949 RPM ratio (pull-down/input)
34. GATGATTGTTCTCCCAGCTGATGAATTAGAGCTTTCGAGTAAACAAATTTTCCTAATCTTTCTGTTCAAGCGCCATCTAC  0.946 RPM ratio (pull-down/input)
35. GATGATTGTTCTCCCAGCTGATGAATTCCTGCGTTCGAGTAAACAAATTTTCCTAATCTTTCTGTTCAAGCGCCATCTAC  0.94 RPM ratio (pull-down/input)
36. GATGATTGTTCTCCCAGCTGATGAATTACCAGGATCGAGTAAACAAATTTTCCTAATCTTTCTGTTCAAGCGCCATCTAC  0.922 RPM ratio (pull-down/input)
37. GATGATTGTTCTCCCAGCTGATGAATTGCTCTGCTCGAGTAAACAAATTTTCCTAATCTTTCTGTTCAAGCGCCATCTAC  0.916 RPM ratio (pull-down/input)
38. GATGATTGTTCTCCCAGCTGATGAATTTCGTTAGTCGAGTAAACAAATTTTCCTAATCTTTCTGTTCAAGCGCCATCTAC  0.911 RPM ratio (pull-down/input)
39. GATGATTGTTCTCCCAGCTGATGAATTCTCAATGTCGAGTAAACAAATTTTCCTAATCTTTCTGTTCAAGCGCCATCTAC  0.907 RPM ratio (pull-down/input)
40. GATGATTGTTCTCCCAGCTGATGAATTAGACAGCTCGAGTAAACAAATTTTCCTAATCTTTCTGTTCAAGCGCCATCTAC  0.907 RPM ratio (pull-down/input)
41. GATGATTGTTCTCCCAGCTGATGAATTTGCCGCTTCGAGTAAACAAATTTTCCTAATCTTTCTGTTCAAGCGCCATCTAC  0.897 RPM ratio (pull-down/input)
42. GATGATTGTTCTCCCAGCTGATGAATTAATCCCATCGAGTAAACAAATTTTCCTAATCTTTCTGTTCAAGCGCCATCTAC  0.897 RPM ratio (pull-down/input)
43. GATGATTGTTCTCCCAGCTGATGAATTTAATCTCTCGAGTAAACAAATTTTCCTAATCTTTCTGTTCAAGCGCCATCTAC  0.896 RPM ratio (pull-down/input)
44. GATGATTGTTCTCCCAGCTGATGAATTCCGACGTTCGAGTAAACAAATTTTCCTAATCTTTCTGTTCAAGCGCCATCTAC  0.859 RPM ratio (pull-down/input)
45. GATGATTGTTCTCCCAGCTGATGAATTTGGAGTTTCGAGTAAACAAATTTTCCTAATCTTTCTGTTCAAGCGCCATCTAC  0.855 RPM ratio (pull-down/input)
46. GATGATTGTTCTCCCAGCTGATGAATTGAAGTCTTCGAGTAAACAAATTTTCCTAATCTTTCTGTTCAAGCGCCATCTAC  0.853 RPM ratio (pull-down/input)
47. GATGATTGTTCTCCCAGCTGATGAATTGATCCGGTCGAGTAAACAAATTTTCCTAATCTTTCTGTTCAAGCGCCATCTAC  0.845 RPM ratio (pull-down/input)
48. GATGATTGTTCTCCCAGCTGATGAATTTAAGCGCTCGAGTAAACAAATTTTCCTAATCTTTCTGTTCAAGCGCCATCTAC  0.841 RPM ratio (pull-down/input)
49. GATGATTGTTCTCCCAGCTGATGAATTCTTTCGGTCGAGTAAACAAATTTTCCTAATCTTTCTGTTCAAGCGCCATCTAC  0.84 RPM ratio (pull-down/input)
50. GATGATTGTTCTCCCAGCTGATGAATTATAAGGGTCGAGTAAACAAATTTTCCTAATCTTTCTGTTCAAGCGCCATCTAC  0.839 RPM ratio (pull-down/input)
51. GATGATTGTTCTCCCAGCTGATGAATTTTGACCCTCGAGTAAACAAATTTTCCTAATCTTTCTGTTCAAGCGCCATCTAC  0.832 RPM ratio (pull-down/input)
52. GATGATTGTTCTCCCAGCTGATGAATTGGACTGGTCGAGTAAACAAATTTTCCTAATCTTTCTGTTCAAGCGCCATCTAC  0.832 RPM ratio (pull-down/input)
53. GATGATTGTTCTCCCAGCTGATGAATTGCTCAGGTCGAGTAAACAAATTTTCCTAATCTTTCTGTTCAAGCGCCATCTAC  0.832 RPM ratio (pull-down/input)
54. GATGATTGTTCTCCCAGCTGATGAATTTGACTCCTCGAGTAAACAAATTTTCCTAATCTTTCTGTTCAAGCGCCATCTAC  0.809 RPM ratio (pull-down/input)
55. GATGATTGTTCTCCCAGCTGATGAATTGGAGAGTTCGAGTAAACAAATTTTCCTAATCTTTCTGTTCAAGCGCCATCTAC  0.803 RPM ratio (pull-down/input)
56. GATGATTGTTCTCCCAGCTGATGAATTGGACTACTCGAGTAAACAAATTTTCCTAATCTTTCTGTTCAAGCGCCATCTAC  0.785 RPM ratio (pull-down/input)
57. GATGATTGTTCTCCCAGCTGATGAATTCTGAATCTCGAGTAAACAAATTTTCCTAATCTTTCTGTTCAAGCGCCATCTAC  0.782 RPM ratio (pull-down/input)
58. GATGATTGTTCTCCCAGCTGATGAATTAAAGAGGTCGAGTAAACAAATTTTCCTAATCTTTCTGTTCAAGCGCCATCTAC  0.78 RPM ratio (pull-down/input)
59. GATGATTGTTCTCCCAGCTGATGAATTCGCCGGTTCGAGTAAACAAATTTTCCTAATCTTTCTGTTCAAGCGCCATCTAC  0.778 RPM ratio (pull-down/input)
60. GATGATTGTTCTCCCAGCTGATGAATTCCAAAAGTCGAGTAAACAAATTTTCCTAATCTTTCTGTTCAAGCGCCATCTAC  0.77 RPM ratio (pull-down/input)
61. GATGATTGTTCTCCCAGCTGATGAATTAGCCTGGTCGAGTAAACAAATTTTCCTAATCTTTCTGTTCAAGCGCCATCTAC  0.765 RPM ratio (pull-down/input)
62. GATGATTGTTCTCCCAGCTGATGAATTCCCCCCGTCGAGTAAACAAATTTTCCTAATCTTTCTGTTCAAGCGCCATCTAC  0.765 RPM ratio (pull-down/input)
63. GATGATTGTTCTCCCAGCTGATGAATTCCGACGGTCGAGTAAACAAATTTTCCTAATCTTTCTGTTCAAGCGCCATCTAC  0.765 RPM ratio (pull-down/input)
